{"source": "the supplement of paper PMC4166925", "note": "± gives the standard deviation of the averaged measurements. The full ranking holds about 33,000 sequences; the median of “E-score (dimensionless, -0.5 to 0.5)” is about -0.046, and the highest 2% start at about 0.36. Some of the results follow.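 Also: protein at 200 nM in PBS on universal double-stranded arrays.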"}
{"test_system": "T1, SpTbr T-box DNA-binding domain (GST fusion)", "T1 sequence": "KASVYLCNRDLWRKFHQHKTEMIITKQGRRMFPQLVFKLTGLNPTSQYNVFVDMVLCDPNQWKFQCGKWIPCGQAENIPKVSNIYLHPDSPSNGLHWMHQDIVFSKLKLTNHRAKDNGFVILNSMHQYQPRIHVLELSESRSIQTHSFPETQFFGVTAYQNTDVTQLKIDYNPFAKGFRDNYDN", "assay": "PBM E-score of 8-mer (E-score (dimensionless, -0.5 to 0.5)); Tbr is Tbrain of the sea star Patiria miniata (Pm) or the sea urchin Strongylocentrotus purpuratus (Sp); higher = stronger binding preference; most listed sequences are background and not binding sites", "details": "the construct has about 5 more residues each side", "description": "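Universal protein-binding microarray (Agilent AMADID 016060, 60-bp probes with a 35-bp variable region) incubated with 200 nM GST-fused Strongylocentrotus purpuratus Tbr T-box DNA-binding domain (residues 362-554) in PBS pH 7.5. Scored for every ungapped 8-mer (given with its reverse complement) as E-score (range -0.5 to 0.5; >0.45 counts as bound) and Z-score of median probe intensity. Two replicate arrays (datasets 1 and 2).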"}
{"sequence": "GTAGCTGA", "PBM E-score of 8-mer": "-0.00722 ± 0.057"}
{"sequence": "GCACAGAC", "PBM E-score of 8-mer": "0.00368 ± 0.011"}
{"sequence": "CGAAGGTA", "PBM E-score of 8-mer": "0.00844 ± 0.058"}
{"sequence": "ACATTTGG", "PBM E-score of 8-mer": "0.084 ± 0.14"}
{"sequence": "ATAAAGGA", "PBM E-score of 8-mer": "-0.309 ± 0.075"}
{"sequence": "ACCGTTCA", "PBM E-score of 8-mer": "0.027 ± 0.023"}
{"sequence": "ACGCAGAC", "PBM E-score of 8-mer": "-0.105 ± 0.081"}
{"sequence": "ATGGGTGG", "PBM E-score of 8-mer": "-0.13 ± 0.042"}
{"sequence": "ATGTGACG", "PBM E-score of 8-mer": "0.285 ± 0.026"}
{"sequence": "GTGCAAGA", "PBM E-score of 8-mer": "0.0107 ± 0.013"}
{"sequence": "ACTCACAT", "PBM E-score of 8-mer": "0.124 ± 0.049"}
{"sequence": "ATTATTCC", "PBM E-score of 8-mer": "-0.246 ± 0.01"}
{"sequence": "GCCCGCCC", "PBM E-score of 8-mer": "-0.154 ± 0.007"}
{"sequence": "GTTAACCA", "PBM E-score of 8-mer": "0.036 ± 0.064"}
{"sequence": "CACAGTAA", "PBM E-score of 8-mer": "0.0163 ± 0.1"}
{"sequence": "GAAAGTGC", "PBM E-score of 8-mer": "0.135 ± 0.03"}
{"sequence": "CTTTAAGA", "PBM E-score of 8-mer": "-0.26 ± 0.011"}
{"sequence": "GAGCGACA", "PBM E-score of 8-mer": "0.198 ± 0.054"}
{"sequence": "GCTGAGCA", "PBM E-score of 8-mer": "0.0169 ± 0.0038"}
{"sequence": "AGCTGTTG", "PBM E-score of 8-mer": "0.208 ± 0.0081"}
{"sequence": "TCGAGTAA", "PBM E-score of 8-mer": "-0.0353 ± 0.036"}
{"sequence": "ATGAGAAG", "PBM E-score of 8-mer": "-0.29 ± 0.056"}
{"sequence": "AGGCGCCT", "PBM E-score of 8-mer": "-0.124 ± 0.004"}
{"sequence": "ACGCGAGC", "PBM E-score of 8-mer": "0.212 ± 0.023"}
{"sequence": "GAGGTCCA", "PBM E-score of 8-mer": "-0.242 ± 0.0045"}
{"sequence": "CAAACTGG", "PBM E-score of 8-mer": "0.0711 ± 0.03"}
{"sequence": "ACGGGGAT", "PBM E-score of 8-mer": "0.0216 ± 0.018"}
{"sequence": "AACGAATA", "PBM E-score of 8-mer": "-0.142 ± 0.048"}
{"sequence": "CACCCTCG", "PBM E-score of 8-mer": "0.36 ± 0.0041"}
{"sequence": "GCAGTAGC", "PBM E-score of 8-mer": "-0.136 ± 0.042"}
{"sequence": "TTGGAAAA", "PBM E-score of 8-mer": "-0.105 ± 0.065"}
{"sequence": "AGGCAATA", "PBM E-score of 8-mer": "-0.235 ± 0.044"}
{"sequence": "CTTGGGTC", "PBM E-score of 8-mer": "-0.21 ± 0.01"}
{"sequence": "AAGTCTGA", "PBM E-score of 8-mer": "-0.165 ± 0.083"}
{"sequence": "CGAGGCCG", "PBM E-score of 8-mer": "-0.111 ± 0.09"}
{"sequence": "CTAGGGAC", "PBM E-score of 8-mer": "-0.0934 ± 0.027"}
{"sequence": "CAGCCATA", "PBM E-score of 8-mer": "0.00517 ± 0.021"}
{"sequence": "GTGTCTCA", "PBM E-score of 8-mer": "0.178 ± 0.058"}
{"sequence": "CACAGAAC", "PBM E-score of 8-mer": "-0.0292 ± 0.046"}
{"sequence": "AGGAGAAG", "PBM E-score of 8-mer": "-0.33 ± 0.021"}
{"sequence": "CTTGTCAA", "PBM E-score of 8-mer": "0.355 ± 0.0065"}
{"sequence": "AATAATAT", "PBM E-score of 8-mer": "-0.0261 ± 0.018"}
{"sequence": "AGCCATTC", "PBM E-score of 8-mer": "-0.0528 ± 0.028"}
{"sequence": "AGTACGAC", "PBM E-score of 8-mer": "-0.0149 ± 0.051"}
{"sequence": "CCACATGG", "PBM E-score of 8-mer": "0.0382 ± 0.036"}
{"sequence": "CACGTGTA", "PBM E-score of 8-mer": "0.272 ± 0.0034"}
{"sequence": "GACATCTA", "PBM E-score of 8-mer": "0.0108 ± 0.011"}
{"sequence": "ATCCCCAT", "PBM E-score of 8-mer": "-0.144 ± 0.041"}
{"sequence": "ATGTATGC", "PBM E-score of 8-mer": "-0.249 ± 0.025"}
{"sequence": "CCGTACGC", "PBM E-score of 8-mer": "-0.0684 ± 0.011"}
{"sequence": "CAAGGGAG", "PBM E-score of 8-mer": "0.00799 ± 0.084"}
{"sequence": "AAGCCGGT", "PBM E-score of 8-mer": "-0.0642 ± 0.049"}
{"sequence": "GCGGGAGC", "PBM E-score of 8-mer": "0.0723 ± 0.018"}
{"sequence": "TATTGTGA", "PBM E-score of 8-mer": "0.277 ± 0.057"}
{"sequence": "AGCTTCGC", "PBM E-score of 8-mer": "0.274 ± 0.022"}
{"sequence": "CGTCCTAG", "PBM E-score of 8-mer": "-0.234 ± 0.04"}
{"sequence": "AAAGACTA", "PBM E-score of 8-mer": "0.0263 ± 0.048"}
{"sequence": "ATCTAATA", "PBM E-score of 8-mer": "-0.166 ± 0.09"}
{"sequence": "CCCCATCA", "PBM E-score of 8-mer": "0.0111 ± 0.0018"}
{"sequence": "CAGCTATC", "PBM E-score of 8-mer": "-0.0505 ± 0.015"}
{"sequence": "ACTAGACA", "PBM E-score of 8-mer": "-0.042 ± 0.016"}
{"sequence": "CGTAGATC", "PBM E-score of 8-mer": "-0.215 ± 0.032"}
{"sequence": "AGAGGATA", "PBM E-score of 8-mer": "-0.0705 ± 0.087"}
{"sequence": "AGTGGTAC", "PBM E-score of 8-mer": "-0.16 ± 0.01"}
{"sequence": "ATGATCCG", "PBM E-score of 8-mer": "0.00428 ± 0.051"}
{"sequence": "CCTGCCAG", "PBM E-score of 8-mer": "0.126 ± 0.064"}
{"sequence": "ACGTTCCG", "PBM E-score of 8-mer": "-0.143 ± 0.033"}
{"sequence": "GTTCCGGA", "PBM E-score of 8-mer": "-0.374 ± 0.01"}
{"sequence": "ATGCAGCG", "PBM E-score of 8-mer": "-0.0788 ± 0.099"}
{"sequence": "AAAACGAC", "PBM E-score of 8-mer": "-0.0361 ± 0.045"}
{"sequence": "AGAATAGG", "PBM E-score of 8-mer": "-0.132 ± 0.061"}
{"sequence": "CCCCCCGC", "PBM E-score of 8-mer": "-0.0963 ± 0.12"}
{"sequence": "GGCAGGCC", "PBM E-score of 8-mer": "-0.231 ± 0.078"}
{"sequence": "GCTGTGCA", "PBM E-score of 8-mer": "0.0558 ± 0.051"}
{"sequence": "CAAAGGTG", "PBM E-score of 8-mer": "0.3923 ± 0.00076"}
{"sequence": "GGCCAGCA", "PBM E-score of 8-mer": "0.0296 ± 0.0025"}
{"sequence": "AATCCTAT", "PBM E-score of 8-mer": "-0.143 ± 0.0062"}
{"sequence": "CCAGGTTC", "PBM E-score of 8-mer": "-0.0508 ± 0.007"}
{"sequence": "CCATCAGC", "PBM E-score of 8-mer": "-0.115 ± 0.027"}
{"sequence": "CCCAATCC", "PBM E-score of 8-mer": "0.0195 ± 0.072"}
{"sequence": "GGAGACAA", "PBM E-score of 8-mer": "-0.00259 ± 0.0093"}
{"sequence": "CTTTCCTC", "PBM E-score of 8-mer": "-0.0992 ± 0.05"}
{"sequence": "GCGACCCA", "PBM E-score of 8-mer": "-0.0308 ± 0.06"}
{"sequence": "CGGTGGGA", "PBM E-score of 8-mer": "0.00775 ± 0.037"}
{"sequence": "CCCACAAC", "PBM E-score of 8-mer": "0.254 ± 0.0055"}
{"sequence": "ATAGGCCA", "PBM E-score of 8-mer": "-0.327 ± 0.07"}
